Source: patent publication US20220127332A1 (CURA THERAPEUTICS, published 2022)

Biological target: T1, active TGFβ1 (human, UniProt P01137 fragment)
T1 construct: mature; also called TGFb1; human active TGFβ1
Assay: blocking of active TGFβ1 (1 ng/mL) in solution, 30 min in PBS; free TGFβ1 by ELISA

Sequence of active TGFβ1 (P01137 279-390 limits assumed): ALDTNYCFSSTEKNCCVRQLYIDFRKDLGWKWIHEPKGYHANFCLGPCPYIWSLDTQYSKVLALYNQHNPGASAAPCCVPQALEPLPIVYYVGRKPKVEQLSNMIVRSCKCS

B1: bFISTv3 (bivalent FIST; fusion of an IL-2 polypeptide, a first sTBRII receptor polypeptide and a second sTBRII receptor polypeptide) (other)
chain: [omitted - about 150 residues]KSDVEMEAQKGEMICVTCNRTAHPLKHVNNDMIVTDNNGAVKLPQLCKFCDVRFSTCDNQKSCMSNCSITSICEKPQEVCVAVWRKNDENITLETVCHDPKLTYHGFTLEDAASPKCVMKEKKKPGETFFMCSCSSDECNDNIIFIPPHVQKSVNNDMIVTDNNGAVKLPQLCKFCDVRFSTCDNQKSCMSNCSITSICEKPHEVCVAVWRKNDENITLETVCHDPKLTYHGFTLEDAASPKCVMKEKKKPGETFFMCSCSADECNDNIIFSEDYNTSNPD
Q: For B1, which IC50 is on record?
A: Its IC50 is 9 pM.
